We go through 22 molecules from paper PMC12136788.

This is one part of the list.

The labels stand for the following.
T1: UNK ZnF1-3 (human, UniProt Q9C0B0 31-174)
T1 sequence: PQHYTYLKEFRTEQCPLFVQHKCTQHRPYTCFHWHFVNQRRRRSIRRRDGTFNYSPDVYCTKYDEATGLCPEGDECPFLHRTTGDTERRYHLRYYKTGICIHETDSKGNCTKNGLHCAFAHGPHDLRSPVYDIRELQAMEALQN

B1: chr1:163112212:163112213:-_ENSG00000143248_ENST00000313961|hu_hu|hu_hu_hu_mus_False|28_78 (ssRNA)
RNA: GGGAGUUCUACAGUCCGACGAUCUUUUAUUAUCAGUAAGAGUGAGUUACAUACUAGAUAAAGUAUUGGAUACAAUAAUCAGGAAACAAACACUAUUGGUCCAGAAUUUAAAAUAUAAUGAGCGAAGUGCUGGCACAGGACUUACAACAGAGGAUUGAGCAUCA
B2: chr9:136895555:136895556:-_ENSG00000169925_ENST00000303407|hu_hu|motif|central (ssRNA)
RNA: GGGAGUUCUACAGUCCGACGAUCGAGUACUUUCUACCAUUUUUAUUCUGUUGUGUUGAGGCCAGCAUUGCAAUAAACAAGCGGAACGGCUUACAUUGGACUCAUUUUCAGUAACUGACAUUUACAGGAAUAUACUAGAAACGGCAACAGAGGAUUGAGCAUCA
B3: chr5:74638446:74638447:+_ENSG00000113161_ENST00000287936|hu_mus|FALSE|FALSE (ssRNA)
RNA: GGGAGUUCUACAGUCCGACGAUCAGGGGUGGGAGGCCACGAAGAGGCCAUGCAUCCGGAAAAGUCUUGACAACAUUGUAGCCUCACAGUCCUUGGAUCCUCCGGAUCUCAAUGGAGGCCAAGCCGGCCCAGCUGCCGUCUCCACAACAGAGGAUUGAGCAUCA
B4: 28503210_28503330_2704_CDS_ENSG00000100154_ENST00000397906|human|control|control (ssRNA)
RNA: GGGAGUUCUACAGUCCGACGAUCGAGCACAGACUCAUUUCCACUUAGCUGCUGCAGCAUGGCCAAUUGCUGCUCAAAGUAGCCAAUGGCUUCUUCCAUCACAUUCAUGUUCAUCUUUGUGAUGCCCAUGUUGCCAUAGACCUGCAACAGAGGAUUGAGCAUCA
B5: chr12:88510985:88510986:-_ENSMUSG00000034111_ENSMUST00000037418|mus_mus|FALSE|FALSE (ssRNA)
RNA: GGGAGUUCUACAGUCCGACGAUCUCUUAGACCCUUCAAGGUAUGUGUUCUGUGGUCUCCACAAUUACCUGGGUUUUAGUAAAUAAUACUUUGUCUCUCAAGUUCUCUUACUGCAAAACUUUAGUGCGUGAGUAGUGAAUGCAUCAACAGAGGAUUGAGCAUCA
B6: chr7:141450121:141450122:+_ENSG00000106028_ENST00000265304|hu_mus|hu_hu_hu_mus_True|1_18 (ssRNA)
RNA: GGGAGUUCUACAGUCCGACGAUCUCAUCCGUUCUAUGCCUUUUCUUUUGUCUGGUCACUCAGAAAUAUAAUGUUAUCAGCUAUGAUUGUUGUUGCUUGCCGCCUCACAUUGUUUUUAUCCAUGUAUUCGCCAUAGUCUAUUUUCAACAGAGGAUUGAGCAUCA
B7: chr2:32445735:32445736:+_ENSG00000152683_ENST00000406369|hu_mus|FALSE|FALSE (ssRNA)
RNA: GGGAGUUCUACAGUCCGACGAUCUCGCUAUUCCCCAUCACAAUAAGUUAGAGUCUGUCAGGGUCUUGGCUGCCCCAUCCUGUUGAUUCCAUAUCUACUUGGUAUAUGUGGGAAGGUGGGCCUCAAUCCCUGGCCUGCUCCAACCAACAGAGGAUUGAGCAUCA
B8: chr7:141438946:141438947:+_ENSG00000106028_ENST00000265304|hu_mus|hu_hu_hu_mus_True|58_78 (ssRNA)
RNA: GGGAGUUCUACAGUCCGACGAUCGACGAAAUACCUGUAACACAGGUCUUCGAAACAUUCUAUUUUCUUUUCUUACAGUCUAAUCUUUAGGCUUUUCCUAAAGGAAAGAAAGAAAAGAGAAAAAUGAUAAAUCAAGAAACUACACAACAGAGGAUUGAGCAUCA
B9: chr7:112757510:112757511:-_ENSG00000214194_ENST00000397764|hu_hu|motif|central (ssRNA)
RNA: GGGAGUUCUACAGUCCGACGAUCUUUUCGUGCAUAUACCCCCAAGCAGGCACAAAUGCCUGUAAUGCUGAGAACCACACCGGACAAAAGGGCGAUUGCAUCACCGGCUUCUACUGCUUCCACAACAGGCAGCACCAAAAGCAGCAACAGAGGAUUGAGCAUCA
B10: 91299931_91300051_412_CDS_ENSMUSG00000038459_ENSMUST00000117085|mouse|control|control (ssRNA)
RNA: GGGAGUUCUACAGUCCGACGAUCGCUACACAUCUGGCCCAAGUCCACGGCGUUGCCGUGCGAGAAGAGCAGCGUGUAGCGGCUGGAGGGCGCGCAGCGCACGAACAUGCAGCCCAGCCGGUUGUCGCGGGCCGUGCGCGAGAACAACAGAGGAUUGAGCAUCA
B11: chr2:232320318:232320319:-_ENSG00000115053_ENST00000322723|hu_hu|hu_hu_hu_mus_True|38_78 (ssRNA)
RNA: GGGAGUUCUACAGUCCGACGAUCACUAUUAAAGUCUACAAAACCAAACCCUUUGGAGGACCCAGUUUCCCGAUCAGUGACUAUUCUUGCACGAACAGAGCCGUCAAAUGAUUCUUUUAAGGUCUCUUCAGUGGUAUCCUCAGACAACAGAGGAUUGAGCAUCA
B12: chr21:38528988:38528989:+_ENSG00000182670_ENST00000355666|hu_hu|motif|central (ssRNA)
RNA: GGGAGUUCUACAGUCCGACGAUCAAAAUCAAGCAGUUUAAGAGAUGCUCCAUAACGAGAAAAGAAAGUUCCUGUGGCAUCGGAGCCAAAGCUAUUAAGUUUUUGGAUCCAGGCGGCUAAUUUGGGCUCCACUUCUUUAAGCUCCAACAGAGGAUUGAGCAUCA
B13: 107048173_107050487_268_CDS_ENSMUSG00000018433_ENSMUST00000018577|mouse|control|control (ssRNA)
RNA: GGGAGUUCUACAGUCCGACGAUCAGGGCAUGUUAUACUCUGACCUUGCUUCACCGACCAGCUGCCCAACGGUUUCUGGUCAGAAACCUUGUAAAGGACGACGGUCCUGCCGCUGUCCGUCACUAGGAACUGGUCGGCUUUGUCCAACAGAGGAUUGAGCAUCA
B14: chr2:217002811:217002812:+_ENSG00000079246_ENST00000392132|hu_mus|FALSE|FALSE (ssRNA)
RNA: GGGAGUUCUACAGUCCGACGAUCCAGCGAGGAAAACAUGUAUUGCCGCAAGUCUUCCAUGAAAGGCAGCUGCACAUAAACUAAACACUCAUAGGCGUCCUUAAUGUAAGGGAAGGCUACACCAACUUGAGGAUUAGAUCUUUUCAACAGAGGAUUGAGCAUCA
B15: chr15:96202663:96202664:+_ENSMUSG00000033237_ENSMUST00000096250|mus_hu|motif|central (ssRNA)
RNA: GGGAGUUCUACAGUCCGACGAUCUAUACUGCUCACAGAUGAACCACCCAAAGUUAAUACAGGUCCAUUAGAAAUUCUUUCGGGUUGAUCACCUUUGGCAGUAUCUUGCUGAGUGAUAUCUAAAGUCCCUUGUGGUUCCAUUGGCAACAGAGGAUUGAGCAUCA
B16: chr3:41267201:41267202:+_ENSG00000168036_ENST00000349496|hu_hu|FALSE|FALSE (ssRNA)
RNA: GGGAGUUCUACAGUCCGACGAUCCAAGAAUUUAACAUUUGUUUUGUUGAGCAAGGCAACCAUUUUCUGCAGCCCACCAGCUAAACGCACUGCCAUUUUAGCUCCUUCUUGAUGUAAUAAAAGGUUGUGGAGAGUUGUAAUGGCCAACAGAGGAUUGAGCAUCA
B17: 42858823_42859980_4589_CDS_ENSG00000105429_ENST00000334370|human|control|control (ssRNA)
RNA: GGGAGUUCUACAGUCCGACGAUCGGCAGAGCCCACCGAAGCAUUGAAGCCCCAGGAUGAGGAGCCAUUGGCCUCCCAGUGCAGCACGAGCAGCCCAGACAGGGCCUGAACAGUGAGGGGCCUGUCCCGUCGCUGGCCGCAGAACAACAGAGGAUUGAGCAUCA
B18: chr1:66480114:66480115:+_ENSMUSG00000015222_ENSMUST00000024639|mus_hu|mus_mus_mus_hu_True|1_98 (ssRNA)
RNA: GGGAGUUCUACAGUCCGACGAUCUGGCCUGUGGCGGAUGUUCUUUAGAGAGCCACAUUUGGAUGUCACAUGGCUUAGGUCUAUUUUCUUGGUAACAAUUUGUACCUGCCCCCCUUUAGGCUGGUAUUUGAUGUUGUCAGUUGACAACAGAGGAUUGAGCAUCA
B19: chr2:46810187:46810188:+_ENSG00000119729_ENST00000238738|hu_hu|FALSE|FALSE (ssRNA)
RNA: GGGAGUUCUACAGUCCGACGAUCAAUGUGUAAUAGUUUACUGUUGUAAUUCGUUUAUACCAUGUGUUGGACAACUCAGCUAAUAUGUUAAUUGAUUUAUACAAUUCCUUUCAAUUUUAUCUAAAAAUAAGCAGACCAAAAUUACAACAGAGGAUUGAGCAUCA
B20: chr16:94913438:94913439:+_ENSMUSG00000022897_ENSMUST00000122284|mus_mus|FALSE|FALSE (ssRNA)
RNA: GGGAGUUCUACAGUCCGACGAUCCAGGGAUGUCAUGGAGUGGUGACUGUGGCCAACCUCCAUAGAAUCCUGGGUAGAGGAGCUAUUUGUUGGAGAAUUGUAGACCCUUGGCCUGGUCCGGUUACCCAAGGCUUGCUGUCCAUGCAACAGAGGAUUGAGCAUCA
B21: chr2:60072956:60072957:+_ENSMUSG00000026977_ENSMUST00000102748|mus_hu|FALSE|FALSE (ssRNA)
RNA: GGGAGUUCUACAGUCCGACGAUCCGCACUUUUAGUUUUAUCACUUUUACCAUCAGCUGAAUUCCAACCUGAAGGAAUAAUAUCUACUGUGAUCAUGACAUUGUCGGUCAAAUUACUCCCAAGUGCUGGAGGGACUGCAAACCGCAACAGAGGAUUGAGCAUCA
B22: chr4:103806524:103806525:+_ENSG00000145354_ENST00000273986|hu_hu|FALSE|FALSE (ssRNA)
RNA: GGGAGUUCUACAGUCCGACGAUCUUCAUUGUGUUUAUUAUGUGAACCAUCGCAGGCAGGAAACGUUUUAGAACGCCAACACCUACAAUAAGCUGCUUUAGUAAGACACAAAUCUUCAAUGUUUAUUUCAUUCACUACUUUCGGCAACAGAGGAUUGAGCAUCA

The test deals with T1, UNK ZnF1-3. Description: nsRBNS (natural sequence RNA bind-n-seq); RBNS binding buffer (assumed for nsRBNS): 25 mM Tris pH 7.5, 150 mM KCl, 3 mM MgCl2, 0.01% Triton X-100, 500 ug/ml BSA, 20 U/ml SUPERase-In, 4 C; UNK is unkempt and MSI1 is Musashi-1; names of the RNAs are library labels; protein concentration not given here; high values mean tight binding.
Take B1: the binding signal came out at 1.73 enrichment R.
The result for B2 reads 1.16 enrichment R; that for B3, 1.1 enrichment R.
B4 gave a binding signal of 0.645 enrichment R.
The result for B5 reads 0.837 enrichment R.
To B6 belongs 0.372 enrichment R; to B7, 0.567 enrichment R.
On to B8, for which the binding signal is 0.275 enrichment R.
Regarding B9, the binding signal was found to be 0.898 enrichment R.
To B10 belongs 0.321 enrichment R; to B11, 0.716 enrichment R.
The result for B12 reads 0.882 enrichment R.
As to B13, the binding signal came out at 0.177 enrichment R.
To B14 belongs 1.17 enrichment R; to B15, 0.342 enrichment R; to B16, 1.15 enrichment R.
To B17 belongs 1.06 enrichment R.
To B18 belongs 0.499 enrichment R; to B19, 1.76 enrichment R; to B20, 0.551 enrichment R.
Consider B21, for which the binding signal came to 0.723 enrichment R.
Turning to B22, the binding signal was 0.682 enrichment R.
